# Test results: the supplement of paper PMC12645437, “Orthogonal IMiD-Degron Pairs Induce Selective Protein Degradation in Cells” (ACS Chemical Biology, 2025)
# The list shows a part of the results.
# B1: Q9UKT9 (peptide)
# chain: FGCPICGHNFTQKGNLLRHIKL
# B2: Q9UKT9 (peptide)
# chain: FCCPQCGAAFTQKGNLLRHIKL
# B3: Q9UKT9 (peptide)
# chain: LTCNQCGFMCTQKGNLLRHIKL
# B4: Q9UKT9 (peptide)
# chain: FLCNQCGAPFTQKGNLLRHIKL
# B5: Q9UKT9 (peptide)
# chain: LLCPICGFGCTQKGNLLRHIKL
# B6: Q9UKT9 (peptide)
# chain: FACEQCGAFFTQKGNLLRHIKL
# B7: Q9UKT9 (peptide)
# chain: FMCPVCGAKFTQKGNLLRHIKL
# B8: Q9UKT9 (peptide)
# chain: FWCNQCGHYFTQKGNLLRHIKL
# B9: Q9UKT9 (peptide)
# chain: FICEVCGAIFTQKGNLLRHIKL
# B10: Q9UKT9 (peptide)
# chain: FECDICGAWFTQKGNLLRHIKL
# B11: Q9UKT9 (peptide)
# chain: FSCPQCGADFTQKGNLLRHIKL
# B12: Q9UKT9 (peptide)
# chain: LNCEICGFFCTQKGNLLRHIKL
# B13: Q9UKT9 (peptide)
# chain: LDCEICGFICTQKGNLLRHIKL
# B14: Q9UKT9 (peptide)
# chain: FGCEICGAGFTQKGNLLRHIKL
# B15: Q9UKT9 (peptide)
# chain: FHCDQCGAVFTQKGNLLRHIKL
# B16: Q9UKT9 (peptide)
# chain: FYCNICGAHFTQKGNLLRHIKL
# B17: Q9UKT9 (peptide)
# chain: FKCPICGAAFTQKGNLLRHIKL
# B18: Q9UKT9 (peptide)
# chain: FMCEICGARFTQKGNLLRHIKL
# B19: Q9UKT9 (peptide)
# chain: FMCNQCGHNFTQKGNLLRHIKL
# B20: Q9UKT9 (peptide)
# chain: FHCEVCGADFTQKGNLLRHIKL
# B21: Q9UKT9 (peptide)
# chain: FACNQCGHRFTQKGNLLRHIKL
# B22: Q9UKT9 (peptide)
# chain: FFCPICGHHFTQKGNLLRHIKL
# B23: Q9UKT9 (peptide)
# chain: FRCNICGAHFTQKGNLLRHIKL
# B24: Q9UKT9 (peptide)
# chain: FSCNQCGAGFTQKGNLLRHIKL
# B25: Q9UKT9 (peptide)
# chain: FTCPQCGACFTQKGNLLRHIKL
# B26: Q9UKT9 (peptide)
# chain: FYCEICGAHFTQKGNLLRHIKL
# B27: Q9UKT9 (peptide)
# chain: FCCNQCGAYFTQKGNLLRHIKL
# B28: Q9UKT9 (peptide)
# chain: FACDQCGAKFTQKGNLLRHIKL
# B29: Q9UKT9 (peptide)
# chain: FICDQCGAAFTQKGNLLRHIKL
# B30: Q9UKT9 (peptide)
# chain: FSCEVCGAQFTQKGNLLRHIKL
# B31: Q9UKT9 (peptide)
# chain: FYCDQCGAGFTQKGNLLRHIKL
# B32: Q9UKT9 (peptide)
# chain: FECPQCGAMFTQKGNLLRHIKL
# Biological target: no compound (DMSO)
# Assay: log2 fold change of degron read counts, EGFP-low vs EGFP+ sorted cells; higher = lower degron-EGFP level without compound (poor expression or instability)
# Details: compound: DMSO control; 18 h
# 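Note: jurkat cells carrying a lentiviral library of mutant zinc finger degrons fused to EGFP plus mCherry, mCherry+ cells FACS sorted, degron abundance counted by next-generation sequencing.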
row,Sequence,log2 fold change of degron read counts
1,B1,-0.167
2,B2,-0.456
3,B3,0.437
4,B4,-0.222
5,B5,0.929
6,B6,-0.257
7,B7,-1.02
8,B8,1.58
9,B9,-1.76
10,B10,-1.69
11,B11,-1.87
12,B12,1.83
13,B13,1.61
14,B14,-1.02
15,B15,-1.45
16,B16,0.248

row,Sequence,log2 fold change of degron read counts
1,B17,-0.425
2,B18,-1.26
3,B19,-0.0526
4,B20,-2.17
5,B21,0.29
6,B22,0.34
7,B23,-0.619
8,B24,-0.56
9,B25,-0.475
10,B26,-1.13
11,B27,0.157
12,B28,-1.67
13,B29,-1.17
14,B30,-2.06
15,B31,-0.763
16,B32,-1.39
